Laboratory results taken from the supplement of paper PMC10369915.
The list shows a part of the results. Rule as the data show it: active = 3.2 or more and inactive = the rest. Most of these values are background signal.

B1: PTPN11_Y515_Q510E_YF (peptide)
chain: EFRFIYMAVQH
B2: PTPN11_Y515_Q510P (peptide)
chain: PYRFIYMAVQH
B3: PTPN11_Y515_Q510P_YF (peptide)
chain: PFRFIYMAVQH
B4: PTPN11_Y62_D61G (peptide)
chain: QNTGGYYDLYG
B5: PTPN11_Y62_D61G_YF (peptide)
chain: QNTGGYFDLFG
B6: PTPN11_Y62_D61N (peptide)
chain: QNTGNYYDLYG
B7: PTPN11_Y62_D61N_YF (peptide)
chain: QNTGNYFDLFG
B8: PTPN11_Y62_D61Y (peptide)
chain: QNTGYYYDLYG
B9: PTPN11_Y62_D61Y_YF (peptide)
chain: QNTGFYFDLFG
B10: PTPN11_Y62_N58K (peptide)
chain: QKTGDYYDLYG
B11: PTPN11_Y62_N58K_YF (peptide)
chain: QKTGDYFDLFG
B12: PTPN11_Y62_T59A (peptide)
chain: QNAGDYYDLYG
B13: PTPN11_Y62_Y63C_YF (peptide)
chain: QNTGDYCDLFG
B14: PTPN11_Y63 (peptide)
chain: NTGDYYDLYGG
B15: PTPN11_Y63_D61N_YF (peptide)
chain: NTGNFYDLFGG
B16: PTPN11_Y63_D61V_YF (peptide)
chain: NTGVFYDLFGG
B17: PTPN11_Y63_D61Y_YF (peptide)
chain: NTGFFYDLFGG
B18: PTPN11_Y63_G60A (peptide)
chain: NTADYYDLYGG
B19: PTPN11_Y63_G60V_YF (peptide)
chain: NTVDFYDLFGG
B20: PTPN11_Y63_T59A (peptide)
chain: NAGDYYDLYGG
B21: PTPN11_Y63_Y63C (peptide)
chain: NTGDYCDLYGG
B22: PTPN11_Y66_D61G (peptide)
chain: GYYDLYGGEKF
B23: PTPN11_Y66_D61V (peptide)
chain: VYYDLYGGEKF
B24: PTPN11_Y66_D61V_YF (peptide)
chain: VFFDLYGGEKF
B25: PTPN11_Y66_D61Y (peptide)
chain: YYYDLYGGEKF
B26: PTPN11_Y66_E69Q_YF (peptide)
chain: DFFDLYGGQKF
B27: PTPN11_Y66_F71K (peptide)
chain: DYYDLYGGEKK
B28: PTPN11_Y66_F71K_YF (peptide)
chain: DFFDLYGGEKK
B29: PTPN11_Y66_Y63C_YF (peptide)
chain: DFCDLYGGEKF
B30: PTPN11_Y66_YF (peptide)
chain: DFFDLYGGEKF
B31: PTPN11_Y80_E76G (peptide)
chain: AGLVQYYMEHH
B32: PTPN11_Y80_E76V_YF (peptide)
chain: AVLVQYFMEHH
B33: PTPN11_Y80_Q79P (peptide)
chain: AELVPYYMEHH
B34: PTPN11_Y80_Q79P_YF (peptide)
chain: AELVPYFMEHH
B35: PTPN11_Y80_Q79R_YF (peptide)
chain: AELVRYFMEHH
B36: PTPN12_Y64_K61R (peptide)
chain: VKRNRYKDILP
B37: PTPRD_Y891_V892A (peptide)
chain: HKGASYAFRLS
B38: PTPRF_Y450 (peptide)
chain: RGYRVYYTPDS

molecular target: SHP2 C-SH2 domain E139D; assay: enrichment score (SH2-bound / input frequency) (ratio); bacterial display of known human phosphotyrosine sites (pTyr-Var adds point mutants) read by sequencing; higher = stronger binding; tyrosines were phosphorylated by kinases first; conditions: peptide library: pTyr-Var
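Also: displayed peptides selected on beads carrying the immobilized SH2 domain, with library peptides lacking any tyrosine serving as negative controls.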

Binder | enrichment score
B1 | inactive: 1.72
B2 | inactive: 2.69
B3 | active: 3.56
B4 | inactive: 0.864
B5 | inactive: 2.72
B6 | inactive: 1.1
B7 | inactive: 0.877
B8 | inactive: 1.2
B9 | inactive: 1.03
B10 | inactive: 0.918
B11 | inactive: 1.66
B12 | inactive: 0.799
B13 | inactive: 0.6
B14 | inactive: 1.03
B15 | inactive: 1
B16 | inactive: 1.39
B17 | inactive: 2.08
B18 | inactive: 1.07
B19 | inactive: 1.08

Binder | enrichment score
B20 | inactive: 0.789
B21 | inactive: 1
B22 | inactive: 1.16
B23 | inactive: 1.72
B24 | inactive: 1.3
B25 | inactive: 1.89
B26 | inactive: 1.18
B27 | inactive: 1.3
B28 | inactive: 0.975
B29 | inactive: 1.15
B30 | inactive: 2.05
B31 | inactive: 1.39
B32 | active: 4.58
B33 | inactive: 1.6
B34 | inactive: 1.23
B35 | inactive: 1.46
B36 | inactive: 0.345
B37 | inactive: 0.879
B38 | inactive: 1.19

molecular target: SHP2 C-SH2 domain wild-type; assay: as above; conditions: peptide library: pTyr-Var

Binder | enrichment score
B1 | inactive: 1.44
B2 | inactive: 3.06
B3 | inactive: 2.57
B4 | inactive: 0.855
B5 | inactive: 1.37
B6 | inactive: 0.741
B7 | inactive: 0.799
B8 | inactive: 1.55
B9 | inactive: 1.28
B10 | inactive: 0.692
B11 | inactive: 1.16
B12 | inactive: 0.695
B13 | inactive: 0.87
B14 | inactive: 0.723
B15 | inactive: 1.04
B16 | inactive: 1.1
B17 | inactive: 1.87
B18 | inactive: 1
B19 | inactive: 1.08

Binder | enrichment score
B20 | inactive: 0.906
B21 | inactive: 0.951
B22 | inactive: 1.13
B23 | inactive: 1.64
B24 | inactive: 1.11
B25 | inactive: 1.83
B26 | inactive: 0.85
B27 | inactive: 0.907
B28 | inactive: 1.14
B29 | inactive: 0.987
B30 | inactive: 1.16
B31 | inactive: 1.42
B32 | active: 4.06
B33 | inactive: 1.44
B34 | inactive: 1.25
B35 | inactive: 1.19
B36 | inactive: 0.336
B37 | inactive: 0.906
B38 | inactive: 1.19

molecular target: SHP2 N-SH2 domain L43F; assay: as above; conditions: peptide library: pTyr-Var

Binder | enrichment score
B1 | inactive: 1.21
B2 | inactive: 2.87
B3 | active: 3.75
B4 | inactive: 0.709
B5 | inactive: 0.426
B6 | inactive: 0.845
B7 | inactive: 0.698
B8 | inactive: 1.22
B9 | inactive: 1.13
B10 | inactive: 0.669
B11 | inactive: 1.36
B12 | inactive: 0.737
B13 | inactive: 0.803
B14 | inactive: 0.966
B15 | inactive: 0.97
B16 | inactive: 1.14
B17 | inactive: 2.26
B18 | inactive: 1.04
B19 | inactive: 1.23

Binder | enrichment score
B20 | inactive: 1.04
B21 | inactive: 0.963
B22 | inactive: 0.848
B23 | inactive: 1.84
B24 | inactive: 1.07
B25 | inactive: 1.63
B26 | inactive: 0.901
B27 | inactive: 0.797
B28 | inactive: 0.898
B29 | inactive: 0.794
B30 | inactive: 1.55
B31 | inactive: 1.76
B32 | active: 4.04
B33 | inactive: 1.37
B34 | inactive: 1.2
B35 | inactive: 1.29
B36 | inactive: 0.363
B37 | inactive: 0.804
B38 | inactive: 1.08

molecular target: SHP2 N-SH2 domain T42A; assay: as above; conditions: peptide library: pTyr-Var

Binder | enrichment score
B1 | inactive: 1.22
B2 | inactive: 2.29
B3 | inactive: 2.69
B4 | inactive: 0.786
B5 | inactive: 0.429
B6 | inactive: 0.47
B7 | inactive: 0.936
B8 | inactive: 1.54
B9 | inactive: 1.18
B10 | inactive: 0.579
B11 | inactive: 1.17
B12 | inactive: 0.478
B13 | inactive: 0.898
B14 | inactive: 0.798
B15 | inactive: 1.08
B16 | inactive: 1.28
B17 | inactive: 2.26
B18 | inactive: 0.71
B19 | inactive: 1.08

Binder | enrichment score
B20 | inactive: 0.818
B21 | inactive: 0.9
B22 | inactive: 1.11
B23 | inactive: 1.65
B24 | inactive: 1.27
B25 | inactive: 1.36
B26 | inactive: 0.857
B27 | inactive: 0.483
B28 | inactive: 1.21
B29 | inactive: 0.874
B30 | inactive: 1.2
B31 | inactive: 1.39
B32 | active: 3.44
B33 | inactive: 1
B34 | inactive: 1.11
B35 | inactive: 1.34
B36 | inactive: 0.296
B37 | inactive: 0.745
B38 | inactive: 0.884

molecular target: SHP2 N-SH2 domain T52S; assay: as above; conditions: peptide library: pTyr-Var

Binder | enrichment score
B1 | inactive: 1.58
B2 | inactive: 2.79
B3 | active: 3.22
B4 | inactive: 0.746
B5 | inactive: 0.411
B6 | inactive: 0.669
B7 | inactive: 0.805
B8 | inactive: 1.25
B9 | inactive: 1.14
B10 | inactive: 0.582
B11 | inactive: 0.936
B12 | inactive: 0.609
B13 | inactive: 0.79
B14 | inactive: 0.768
B15 | inactive: 1.06
B16 | inactive: 1.06
B17 | inactive: 2.45
B18 | inactive: 1.77
B19 | inactive: 0.93

Binder | enrichment score
B20 | inactive: 1.01
B21 | inactive: 0.9
B22 | inactive: 0.889
B23 | inactive: 1.62
B24 | inactive: 1.36
B25 | inactive: 1.57
B26 | inactive: 0.958
B27 | inactive: 0.716
B28 | inactive: 1.21
B29 | inactive: 1.19
B30 | inactive: 1.51
B31 | inactive: 2.94
B32 | active: 3.88
B33 | inactive: 1.19
B34 | inactive: 1.09
B35 | inactive: 1.49
B36 | inactive: 0.242
B37 | inactive: 0.898
B38 | inactive: 1

molecular target: SHP2 N-SH2 domain wild-type; assay: as above; conditions: peptide library: pTyr-Var

Binder | enrichment score
B1 | inactive: 1.6
B2 | inactive: 2.55
B3 | active: 3.43
B4 | inactive: 0.605
B5 | inactive: 1.85
B6 | inactive: 0.545
B7 | inactive: 0.918
B8 | inactive: 0.777
B9 | inactive: 0.994
B10 | inactive: 0.718
B11 | inactive: 1.4
B12 | inactive: 0.842
B13 | inactive: 0.765
B14 | inactive: 0.998
B15 | inactive: 1.33
B16 | inactive: 1.49
B17 | inactive: 2.29
B18 | inactive: 1.13
B19 | inactive: 0.896

Binder | enrichment score
B20 | inactive: 1.07
B21 | inactive: 1.03
B22 | inactive: 1.01
B23 | inactive: 1.73
B24 | inactive: 1.42
B25 | inactive: 1.65
B26 | inactive: 0.837
B27 | inactive: 0.926
B28 | inactive: 0.895
B29 | inactive: 0.971
B30 | inactive: 1.09
B31 | inactive: 1.37
B32 | active: 3.76
B33 | inactive: 1.07
B34 | inactive: 1.24
B35 | inactive: 1.53
B36 | inactive: 0.25
B37 | inactive: 1
B38 | inactive: 0.687
